Among all 45,000 compounds or so, about 65 (0.1%) were called active. Calls come from the whole dose curve; as a rule, active = well fitted activation curve with a large enough effect; inconclusive = small, poorly fitted or top-dose-only effect; inactive = no such curve, though single readings can be large or run the other way. The list shows a part of the results.

The target of this experiment is Galactocerebrosidase (Homo sapiens) (UniProt P54803). As to the kind of experiment: A Novel Cell-Based Assay to Identify Small Molecules for B -Galactocerebrosidase. Note: 0% is about no effect; nearly all actives have a fitted effect of over 65% in size. To be noted: 145M-Twi-hGALC-G270D cells (Twitcher mouse brain line with human GALC G270D), HMU-beta-Gal fluorescence, 48 h; series mostly up to 57.5 µM; activation: at the top concentration. Summed up: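 Live 145M-Twi cells (Twitcher mouse brain-derived, GALC-null) stably expressing human GALC-G270D, with a wild-type GALC line, were compound-treated. Residual GALC activity was then read as fluorescence from 0.1 mM final HMU-β-gal at pH 5.2; higher signal means activation.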
Chain of UniProt P54803 (P54803 whole entry, looked up): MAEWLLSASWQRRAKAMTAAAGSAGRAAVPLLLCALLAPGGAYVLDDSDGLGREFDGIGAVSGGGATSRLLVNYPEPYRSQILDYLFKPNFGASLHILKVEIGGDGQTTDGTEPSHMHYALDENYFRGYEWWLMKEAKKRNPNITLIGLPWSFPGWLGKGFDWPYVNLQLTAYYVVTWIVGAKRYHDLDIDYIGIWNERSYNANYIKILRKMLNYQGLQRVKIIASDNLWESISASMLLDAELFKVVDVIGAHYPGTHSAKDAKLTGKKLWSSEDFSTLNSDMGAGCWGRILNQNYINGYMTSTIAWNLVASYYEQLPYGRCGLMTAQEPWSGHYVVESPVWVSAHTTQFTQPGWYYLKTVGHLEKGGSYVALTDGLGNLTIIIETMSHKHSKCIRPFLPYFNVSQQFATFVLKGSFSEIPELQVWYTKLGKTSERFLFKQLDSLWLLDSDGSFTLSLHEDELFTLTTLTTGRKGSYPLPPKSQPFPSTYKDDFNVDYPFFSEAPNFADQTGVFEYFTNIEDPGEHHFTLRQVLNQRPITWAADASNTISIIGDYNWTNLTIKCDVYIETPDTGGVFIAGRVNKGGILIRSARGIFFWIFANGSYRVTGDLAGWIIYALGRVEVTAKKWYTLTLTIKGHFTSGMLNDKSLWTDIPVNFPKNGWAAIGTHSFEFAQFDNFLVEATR
With `CC(C)c1ccc(OCC(=O)N(Cc2ccc(N(C)C)cc2)C2CCS(=O)(=O)C2)cc1` (stereo unspecified), the “activation” value was inactive: -28.9%.

Regarding `CCOc1ccc(S(=O)(=O)Nc2nc3ccccc3nc2Nc2ccc(OC)cc2)cc1`, the “activation” value was inactive: 2.63%. For the compound `Cc1cc(C)c2nc(N(Cc3cccnc3)C(=O)CCOc3ccccc3)sc2c1`, the “activation” value was inactive: -7.81%. To `CCCNC(=O)CCSc1nc(-c2ccc3c(c2)OCO3)cc(C(F)(F)F)n1` belongs inactive: -11.3%; to `CCc1ccc(NC(=O)Cn2c(=O)n(Cc3ccco3)c(=O)c3cccnc32)cc1`, inactive: 3.3%; to `Cc1ccc2nc(-c3cccnc3)c(Nc3ccccc3C)n2c1`, inactive: -18.8%. To `CCOC(=O)c1c(SCC(=O)Nc2cc(Cl)cc(Cl)c2)nc(=O)[nH]c1C` belongs inactive: -10.3%; to `COc1cc(CCC(=O)NCc2ccc3c(c2)CCN3C(=O)c2ccc(F)cc2)cc(OC)c1OC`, inactive: -18.8%. Turning to `Cc1ccc2nc(NCc3ccc(F)cc3)c3nncn3c2c1`, the “activation” value was inactive: -11.3%. `Cc1nc(-c2ccc(S(=O)(=O)NCc3ccc(N(C)C)cc3)cc2)co1`: the “activation” value was inactive: -33.7%. Take `CCN(CC)c1ccc(NC(=O)Cn2nc(C)n3cccc3c2=O)c(C)c1`: the “activation” value was inactive: -3.68%. For the compound `Cc1cccc(-n2ncc3c(N4CCN(c5ccccc5)CC4)ncnc32)c1`, the “activation” value is inactive: 4.88%. `COc1ccc2ncc3c(-c4ccc(C)c(C)c4)nn(CC(=O)NC4CCCC4)c3c2c1`: the “activation” value is inactive: -6.35%. To `COc1ccc(-c2nc3c(c(SCC(=O)N(C)c4ccccc4)n2)Cc2cc(C)ccc2O3)cc1` belongs inactive: -10.7%; to `CCCCNC(=O)C1CCC(CNS(=O)(=O)c2ccc(NC(C)=O)cc2)CC1` (stereo unspecified), inactive: -5.18%; to `CC(=O)Nc1ncc([N+](=O)[O-])s1`, inactive: -14.3%. Under `CCc1ccccc1NC(=O)CCc1c(C)nn(-c2ccc(N3CCOCC3)nn2)c1C` stands inactive: -16.9%; under `CCc1nn2c(=O)cc(COC(=O)c3ccccc3NC(=O)C3CCCCC3)nc2s1`, inactive: -8.66%.

Consider `O=C(c1ccc(F)cc1)n1nc(-c2ccccc2)nc1NCc1ccc(F)cc1`, for which the “activation” value was inactive: -22%. On to `COc1cc2ccccc2cc1C(=O)N1CCN(c2nc3ccc(F)cc3s2)CC1`, for which the “activation” value was inactive: -15.8%. Consider `CCc1ccc(CNCc2c(C(=O)O)n(Cc3ccc(F)cc3Cl)c3cc(OC)ccc23)cc1`, for which the “activation” value is inactive: 4.24%. For the compound `CSCCC(NS(=O)(=O)c1ccc2c(c1)oc(=O)n2C)C(=O)N1CCN(c2cccc(Cl)c2)CC1` (stereo unspecified), the “activation” value was inactive: -23.5%. On to `Cc1ccc(CNC(=O)c2nnn(CC(=O)Nc3cc(C)ccc3C)c2N)cc1`, for which the “activation” value was inactive: -19.4%. Under `O=C(CN1C(=O)COc2ccc(S(=O)(=O)N3CCCCC3)cc21)NCc1ccc(Cl)cc1` stands inactive: -3.3%. Under `CN(C(=O)c1cc2c(s1)-c1ccc(Cl)cc1SC2)c1cccc(C(F)(F)F)c1` stands inactive: -15.2%; under `COc1ccc(CCNC(=O)c2cnc3sc(N4CCCC4)nn3c2=O)cc1OC`, inactive: -7.89%; under `CCc1ccccc1NS(=O)(=O)c1ccc(NC(=O)N2CCCC2)cc1`, inactive: -21.4%.

In the case of `CCOc1ccc(-c2cc(-c3nc(-c4cc(OC)c(OC)c(OC)c4)no3)[nH]n2)cc1`, the “activation” value is inactive: -23%. `CCOC(=O)c1cc(-c2ccc(F)cc2)n(CCC(=O)NCCc2ccc(C)cc2)c1C`: the “activation” value was inactive: -23%. Under `Cc1ccc(CN(Cc2ccco2)C(=O)COc2ccc(Cl)cc2)o1` stands inactive: -10.5%; under `CC(=O)c1ccc(NC(=O)c2ccc(-c3nc(CSc4ccccc4)c(C)o3)cc2)cc1`, inactive: -9.75%. To `Fc1ccc(-c2noc3ncnc(NCC4CCN(Cc5ccc(Cl)cc5)CC4)c23)cc1` belongs inactive: -10.2%.

Regarding `Cc1ccc2cc3c(N)nn(C(=O)c4cccc(F)c4)c3nc2c1`, the “activation” value is inactive: -19%. For `CO[C@@]1(NC(=O)CSC[C@@H](N)C(=O)O)C(=O)N2C(C(=O)O)=C(CSc3nnnn3C)CS[C@@H]21`, the “activation” value is inactive: -15.7%.

As to `COc1cc(NC(=O)c2cc(C)nc3c2c(C)nn3-c2ccccc2Cl)cc(OC)c1`, the “activation” value was inactive: -41.4%.

Consider `Cc1ccc(N2CCN(S(=O)(=O)c3ccc(F)c(C(=O)Nc4ccc(Cl)cc4Cl)c3)CC2C)cc1` (stereo unspecified), for which the “activation” value was inactive: -1.5%. To `Cc1cc2c(cc3c(SCc4nc(-c5ccccc5)oc4C)nnc(C)n32)o1` belongs inactive: -22.8%.

Consider `Cc1cc(C)cc(NC(=O)Cn2nnc(-c3nc(-c4ccncc4)no3)c2N)c1`, for which the “activation” value is inactive: -22.7%. Under `CCn1ccc2c(OCC(=O)Nc3ccccc3C)cccc2c1=O` stands inactive: -10.1%. Under `Nc1c(C(=O)Nc2ccc(F)c(F)c2)sc2nc(-c3ccncc3)ccc12` stands inactive: -14.9%.

`COC(=O)c1cc(NC(=O)c2nn(C)c3c2COc2ccccc2-3)cc(C(=O)OC)c1`: the “activation” value was inactive: -6%.

Regarding `Cc1cc(CC(=O)O)n(C)c1C(=O)c1ccc(Cl)cc1`, the “activation” value is inactive: -7.94%. To `COc1ccc(S(=O)(=O)Nc2ccc3c(c2)CCCN3S(=O)(=O)c2ccc(C)cc2)cc1F` belongs inactive: -9.6%. Under `COc1cccc(CNC(=O)c2cc(C)nc3c2c(C)nn3-c2cccc(F)c2)c1` stands inactive: -7.02%; under `O=C(Nc1ccc2nc(SCC(=O)N3CCCc4ccccc43)sc2c1)c1ccccc1`, inactive: -32%. For `CCOC(=O)c1ccc(NC(=O)Nc2cc3c(cc2N2CCCC2)n(C)c(=O)n3C)cc1`, the “activation” value is inactive: -13.1%. `COc1ccc(N2CCN(C(=O)c3cccc(NC(=O)c4nsc5ccccc45)c3)CC2)cc1`: the “activation” value was inactive: -10.8%. Under `Cc1ccc(S(=O)(=O)NCCc2cn3ccsc3n2)cc1` stands inactive: -5.93%; under `COc1ccc(-n2nnnc2C2CCN(S(=O)(=O)c3ccc(C(C)(C)C)cc3)CC2)cc1`, inactive: -10.4%.

In the case of `CCC(CC)C(=O)Nc1nc2c(s1)CC(C)CC2` (stereo unspecified), the “activation” value was inactive: -24.9%. On to `O=C(COCc1cc(-c2ccc3c(c2)OCO3)on1)N1CCN(c2ccccc2)CC1`, for which the “activation” value was inactive: -14.5%. For the compound `COc1ccccc1NC(=O)C1=C(C)Nc2nc(SCc3ccccc3F)nn2C1c1cccs1` (stereo unspecified), the “activation” value was inactive: -13.8%. As to `Cc1cccc(N(C)C(=O)C(Cc2ccccc2)NS(=O)(=O)c2cccc3nsnc23)c1` (stereo unspecified), the “activation” value is inactive: -31.5%. To `O=C(CN1Cc2ccccc2C1=O)Nc1cc(F)ccc1F` belongs inactive: -5.27%. With `Cc1ccc(C)c(NC(=O)N2CC=C(c3c[nH]c4ccccc34)CC2)c1`, the “activation” value was inactive: -32.5%. To `Cc1cc(C)c(NC(=O)CSc2nc(C)cc(C)c2C#N)c(C)c1` belongs inactive: -15.1%; to `CC(=O)c1ccc(NC(=O)C2CCN(S(=O)(=O)c3ccc4c(c3)CCCN4C(=O)C3CCC3)CC2)cc1`, inactive: 10.3%; to `Cc1ccc2oc(=O)c3cnn(CC(=O)N(C)c4ccc(F)cc4)c3c2c1`, inactive: -21.4%. As to `CCOc1ccc(-n2c(SCC(=O)Nc3ccccc3OC)nc3c(oc4ccccc43)c2=O)cc1`, the “activation” value is inactive: 1.65%. `COc1ccccc1OCC(=O)N(Cc1ccc(N(C)C)cc1)CC1CCCO1` (stereo unspecified): the “activation” value is inactive: -5.96%. Under `COc1ccc(Nc2ccc3cc(S(=O)(=O)N4CCCC4)ccc3n2)cc1Cl` stands inactive: -11.8%; under `CCCSc1nc(=O)c2c(n1C)NC(=O)CC2c1cccc(F)c1F` (stereo unspecified), inactive: -7.56%; under `O=C(Cn1c(-c2cccs2)cc2cc(Cl)ccc21)NCc1ccccc1`, inactive: -9.4%. To `COc1ccc(-n2nc3ccc(NC(=O)COc4ccc(C)c(C)c4)cc3n2)cc1` belongs inactive: -15%; to `COc1ccc(N2CCN(C(=O)Cc3c(C(=O)O)c(C)cn3C)CC2)cc1`, inactive: -6.98%; to `CCOC(=O)c1c(NC(=O)CCCOc2ccc(C(C)(C)C)cc2)sc2c1CCC2`, inactive: -10%. To `CCc1ccccc1NC(=O)CN(Cc1ccccc1)S(=O)(=O)c1ccc2nc(C)sc2c1` belongs inactive: -9.23%; to `CC(=O)c1cccc(NC(=O)c2cnn(-c3cccc(C)c3)c2-n2cccc2)c1`, inactive: -15%; to `Cc1ccc(-c2c(C(=O)N3CCN(c4cccc(C)c4C)CC3)oc(=O)c3ccccc23)cc1`, inactive: 5.58%. With `CCC(=O)N1CCc2cc(Br)cc(S(=O)(=O)NCCc3ccccc3Cl)c21`, the “activation” value is inactive: -8.2%.

In the case of `Cc1cccc(NC(=O)Cn2cc(S(=O)(=O)c3ccc(F)cc3)c(=O)c3cc4c(cc32)OCO4)c1`, the “activation” value was inactive: -1.05%. For the compound `CCc1cc(C(=O)Nc2cnn(Cc3ccc(F)cc3)c2)no1`, the “activation” value is inactive: -17.4%. On to `O=C(O)COC(=O)Cc1ccccc1Nc1c(Cl)cccc1Cl`, for which the “activation” value was inactive: -13.1%. To `COc1ccc(OC)c(CCNC(=O)c2cc3c(-c4ccccc4F)nn(C)c3s2)c1` belongs inactive: -8.88%; to `COc1ccccc1CCNC(=O)CCn1c(=O)c2cccn2c2ccc(F)cc21`, inactive: 0.535%. Under `CCOc1cc(C(=O)Nc2ccc3oc(-c4ccc(CC)cc4)nc3c2)cc(OCC)c1OCC` stands inactive: -7.65%; under `COc1ccc(CCNC(=O)CCc2c(C)nc3cc(-c4ccccc4)nn3c2C)cc1OC`, inactive: -12.3%. For `Cc1cc(C)cc(NC(=O)CSCn2nnc3c(=O)[nH]c(Cc4ccc(F)cc4)nc32)c1`, the “activation” value was inactive: -14%.

Regarding `CCCCN(Cc1ccccc1)C(=O)CN(C)S(=O)(=O)c1ccc2c(c1)c(=O)n(C)c(=O)n2C`, the “activation” value was inactive: 3.03%. To `Cc1ccc(OCC(=O)Nc2ccc3nc(SCc4ccccc4)sc3c2)cc1` belongs inactive: 1.54%. In the case of `CCc1cc2c(cc3c(=O)n(CCCC(=O)NCc4ccccc4Cl)nc(CC)n32)s1`, the “activation” value was inactive: -15.4%.

`Cc1cccc(OCc2ccc(-c3nc(C#N)c(N4CCC(C(N)=O)CC4)o3)o2)c1`: the “activation” value is inactive: 5.29%. Under `CCOC(=O)c1cccc(NC(=O)Cn2c(=O)nc(-c3ccccc3)c3ccccc32)c1` stands inactive: -16.4%. Under `O=C(Nc1cc(C(F)(F)F)ccc1Cl)c1cc(S(=O)(=O)NCc2ccccc2)ccc1F` stands inactive: -8.34%; under `Cc1noc(/C=C/c2ccco2)c1S(=O)(=O)N1CCC(C(=O)Nc2ccc(F)cc2F)CC1`, inactive: -0.153%; under `COCCCNC(=O)CC(c1cc(OC)c(OC)c(OC)c1)N1Cc2ccccc2C1=O` (stereo unspecified), inactive: 7.64%.

For `COc1ccc(NC(=O)C(Cc2ccccc2)NS(=O)(=O)c2ccc(Br)s2)cc1OC` (stereo unspecified), the “activation” value was inactive: -14%.

For the compound `CC(=O)Nc1cc(C(=O)NCc2ccccc2)ccc1Sc1ccc(C)cc1`, the “activation” value was inactive: -10.1%. Under `CCCCNc1sc(S(=O)(=O)CC)nc1S(=O)(=O)c1ccc(C)cc1` stands inactive: -11.1%; under `Cc1ccc(N2CC(c3nnc(Cc4ccc(Cl)cc4)o3)CC2=O)cc1` (stereo unspecified), inactive: -12%. To `CNS(=O)(=O)c1cn(CC(=O)Nc2ccc(F)cc2F)cc1S(=O)(=O)NC` belongs inactive: -4.05%; to `CN(C(=O)CSc1cn(CC(=O)N2CCCCCC2)c2ccccc12)c1ccccc1`, inactive: 5.61%. Under `O=C(NC1CCCCC1)c1ccc(Cn2c(SCc3cccc(F)c3)nc3cccnc32)cc1` stands inactive: 0.65%; under `Cc1cccc(C(=O)Nc2ccc(-c3nc4ccccc4s3)c(C)c2)c1`, inactive: -20.8%. `Cc1ccc(CNC(=O)C(C(C)C)N2Cc3ccccc3C2=O)cc1` (stereo unspecified): the “activation” value was inactive: -13.2%.

With `COc1ccc(N2CCN(CC(O)COc3ccccc3C(C)(C)C)CC2)cc1` (stereo unspecified), the “activation” value is inactive: -20.9%.

Source of the values: PubChem BioAssay AID1159614 (National Center for Advancing Translational Sciences (NCATS), 2016).
